Reference: the RNAGym collection of RNA variant scans (doi:10.7554/elife.90254)
Read counts are not given, so values of variants with three or more changes are uncertain.

B1: LINE1-full (parent)
chain: UACGUAGGUGGUUUUCCCCUGAUAGUGCUAAGGGGGCCUGGAAGUUUGGACUGGGCAGAGCUCAACACAGCGUGGCAAAGUGGCUGUGGCUAGACUGCCUCUCUGGAUUCCUCGUCACUCAGCAGGGCAUCUCUGAGAGAAAUGCC

Variants of: B1
Test: self-cleavage, relative activity (ratio to wild type); higher = more cleavage; in vitro, sequencing; the parent is a self-cleaving ribozyme

Row | Variant | self-cleavage
1 | G83A U87C U100C U119G | 0.51
2 | U87C G126U U130A | 0.31
3 | G80A U102C G106U C123U A141G | 0.68
4 | U91C A140U A141U | 0.87
5 | A78G A124U A140G | 1.32
6 | U91C U109C A129U | 0.34
7 | G82A U102C U109C | 1.64
8 | G82A A94G U102C | 0.19
9 | A78G U100C U108C | 0.38
10 | U85A A92C U134C | 0.34
11 | U91C U104C G144A | 0.9
12 | A78G G86A G105A U132A | 0.06
13 | A77U G86A U100A U102C | 0.04
14 | U85G G88A A121G A141G | 0.09
15 | U85C A107G U108A A129U | 0
16 | A79U A141G A142G | 2.23
17 | G89A U112A A138G A141G | 0.05
18 | A79G U112A U132C | 2.35
19 | A94U C113U A121G A138G | 0.36
20 | U81A A117C G127U U134C | 2.3
21 | A78G U85C G114A U132C | 0.07
22 | A79G A107G A142G | 1.07
23 | A78G U104C U108C A124U C128U | 2.87
24 | A78G A121U C146U | 0.49

Row | Variant | self-cleavage
25 | A79U U109C A117U A129G | 1.61
26 | A78G U109C A129U U143C | 1.04
27 | A78G U85C U87A | 0.12
28 | U91A U100C A129G | 2.06
29 | A78U U87C U96A | 0.15
30 | A78G A94G A129U | 0.26
31 | A77U U132A A140G A142G | 1.81
32 | A79G U81C G83U A138C | 0.68
33 | U81C A92U U100A | 0.28
34 | A78G A79G U134C | 1.17
35 | U85A U87C A92G U100C A121U | 0.77
36 | U85G U112C A136U | 0.52
37 | G83A U87C U100C U109C | 0.11
38 | U87C G105U A121U | 0.17
39 | U91C U109C A117U | 0.45
40 | A79C G97A A107G | 0
41 | G86A U115C U134C A141G | 0.04
42 | A78C A79G U100C | 1.15
43 | U85G A124U C145U | 0.12
44 | A78U C113A U119A | 1.4
45 | A94G U104C U130A | 0.18
46 | A78G A79G G86A C118U | 0.01
47 | U81G G89A C113A U132A | 0.03
48 | G82A U112C A117G | 1.49

Row | Variant | self-cleavage
49 | A79G C90A A129U | 0.05
50 | U87A A94U A138G | 0.07
51 | U91G G125U U132C A142G | 0
52 | A79G A94G A129G A140G | 0.66
53 | U91A G114A C123U U143A | 0.32
54 | U81C C103U U115C | 1.15
55 | U87A A94G A141G | 0.18
56 | U87A A138G A140G A141G | 0.15
57 | G82A A92G A140G | 0.08
58 | A79G U81C A117U | 1.45
59 | U81A U109C G125C | 2.67
60 | C90A U100C G135A | 0.06
61 | U81C A121U A124G | 1.41
62 | U87A U115A A142G | 0.05
63 | A78G G83A U96A | 0
64 | U81A U104C U112C | 2.78
65 | U87C U102C U108C | 0.84
66 | G89A U134G A138G | 0
67 | A79G U100C A129C | 0.38
68 | U81C U104C A140G | 0.5
69 | G93U U102C U132C | 0.05
70 | A78G A92U U104A | 0.39
71 | U81C G88A U134A | 0.02
72 | G88A U115G A117U | 0.04

Row | Variant | self-cleavage
73 | A77U U96A A124G | 0.07
74 | U85C A124G U132A | 0
75 | A94G C99U U119C U132A | 0.13
76 | U81A A92G A140G | 0.03
77 | A79U C84U U102C A129G A142G | 0.04
78 | A78G U100C U102C | 0.97
79 | A79G A136U U143G | 1.31
80 | A78G U85C U96C | 0.38
81 | A94G U108C U130C | 0
82 | U85C A92G C111U | 0.18
83 | U81C U115A G125U | 0.77
84 | A92G A117G A136G | 0
85 | A77U U96C U108C G114A A141G | 0.07
86 | U85C U102C A142G | 0.14
87 | A79U G89A G105A | 0.04
88 | A92G U100C A124U | 0
89 | U81C G122A A141G | 1.14
90 | U85C A92U U115A | 0.21
91 | U87C U132C A136C | 0.21
92 | U87C U132C A136G | 0.35
93 | U81A U109A A124U | 2.11
94 | A79G U91A A136G | 0.77
95 | A94G A121U U134C | 0
96 | A79G A94C U132C | 0.12

Row | Variant | self-cleavage
97 | U85A U96A U134C | 0.19
98 | A92U U102C U134A | 0.51
99 | A77U U104A A136G | 2.28
100 | U87A U96A A138G | 0.06
101 | A78G U115C A140G | 0.74
102 | G80A G88A A124G | 0.03
103 | A78G U81A A142G | 0.44
104 | U85C A94U G125A A129G A136G | 0.16
105 | U87C U104C A107G | 0.63
106 | A79G C131U G144U | 1.31
107 | G88A U100A A121G G122C | 0.02
108 | G88A U104A U109A | 0.06
109 | A94G U119A U130C | 0
110 | U91A U104C A124C | 0.34
111 | G82A U115A G126A U132C | 2.56
112 | U85C U100C A138G A141G | 0
113 | A78G U132A U134A | 1.66
114 | C90G U112C G127A | 0.02
115 | U91C G126U A140G | 0.5
116 | A78U G97U A129U | 0.07
117 | A79G U85C A121G U132C | 0
118 | U87A U100A A140U | 0.04
119 | U81C A92G G97A A140G | 0.09
120 | G86U U87C G88A | 0.08

Row | Variant | self-cleavage
121 | U87A U115C A138G | 0
122 | A78G C113U C120U | 1.12
123 | A79G G93A A121U A140G | 0.04
124 | A94G C113U A138G | 0.22
125 | A78U U85C U130C | 0.29
126 | U81C U112C U119A | 0.75
127 | A77U U96C A138G | 0.19
128 | U87A U134C U143C | 0.14
129 | A79G A92G A136U G144A | 0
130 | G88A A107U U132C | 0.04
131 | U85C U104C A140G | 0
132 | A92G U102A U112A | 0.18
133 | U87G A129U U130C | 0.09
134 | A78G U112C U115C A136U A141G | 1.67
135 | A79G C84U A124U | 0.18
136 | U87A U115A G144A | 0.17
137 | A79G A124G U143A | 0.68
138 | G86A C123U A136G A140U | 0.09
139 | G89U U102C U115A | 0.03
140 | U91C U104C U108C | 2.3
141 | A79U G80A A92U U104A U112C U115A U134A | 2.06
142 | A79U A92G A117G | 0.07
143 | A92G U104C A142G | 0.05
144 | A78G U109C A138G A140G | 0.73

Row | Variant | self-cleavage
145 | A79U U119C U132A | 2.82
146 | A78G A129U A140U | 1
147 | G82A U102C U112C C146U | 2.22
148 | G82A A124G U134C G135U | 2.35
149 | U81A U85C A129G | 0.07
150 | U85C C99U U119A A141G | 0.03
151 | G82A A94G U132C | 0.27
152 | A79G U96A U108C | 0.04
153 | U91C A129U U143A | 0.5
154 | A78G U108C U112A A142G | 1.21
155 | A94G U108C C123U | 0.35
156 | A78U U87A U109C | 0.11
157 | U91C U109C U143C | 0.19
158 | U87C A94U U130C | 0.17
159 | A78G U115C A124U | 1.05
160 | U87C C90U A94G | 0.03
161 | G83A A121G C128U | 0.51
162 | U85C U96A U100C A129G | 0
163 | A79G U104C C116A U130A | 2.08
164 | A92G U112C G135A | 0.04
165 | A92G G97A U108A | 0.13
166 | U81A C95U A121G | 0.42
167 | U81A U112C A142G | 1.72
